From PMC10526831, “SUPPRESSOR OF MAX2 LIKE 6, 7, and 8 Interact with DDB1 BINDING WD REPEAT DOMAIN HYPERSENSITIVE TO ABA DEFICIENT 1 to Regulate the Drought Tolerance and Target SUCROSE NONFERMENTING 1 RELATED PROTEIN K”
No constants are given. Whether binding was seen depends on the method and setting. Where a sequence is shown, tags or fusion partners need not be part of it.

What was measured:
Assay in all cases: two-hybrid; bait and prey co-transformed into Y2H Gold; spotted on DDO (SD/-Leu/-Trp) or QDO (SD/-Ade/-His/-Leu/-Trp) with or without X-alpha-Gal/AbA; 30 °C, 3 days
[1] = molecular target: T1, SUPPRESSOR OF MAX2-LIKE 8 fused to the GAL4 DNA binding domain (Arabidopsis thaliana) (UniProt F4IGZ2)
T1 sequence: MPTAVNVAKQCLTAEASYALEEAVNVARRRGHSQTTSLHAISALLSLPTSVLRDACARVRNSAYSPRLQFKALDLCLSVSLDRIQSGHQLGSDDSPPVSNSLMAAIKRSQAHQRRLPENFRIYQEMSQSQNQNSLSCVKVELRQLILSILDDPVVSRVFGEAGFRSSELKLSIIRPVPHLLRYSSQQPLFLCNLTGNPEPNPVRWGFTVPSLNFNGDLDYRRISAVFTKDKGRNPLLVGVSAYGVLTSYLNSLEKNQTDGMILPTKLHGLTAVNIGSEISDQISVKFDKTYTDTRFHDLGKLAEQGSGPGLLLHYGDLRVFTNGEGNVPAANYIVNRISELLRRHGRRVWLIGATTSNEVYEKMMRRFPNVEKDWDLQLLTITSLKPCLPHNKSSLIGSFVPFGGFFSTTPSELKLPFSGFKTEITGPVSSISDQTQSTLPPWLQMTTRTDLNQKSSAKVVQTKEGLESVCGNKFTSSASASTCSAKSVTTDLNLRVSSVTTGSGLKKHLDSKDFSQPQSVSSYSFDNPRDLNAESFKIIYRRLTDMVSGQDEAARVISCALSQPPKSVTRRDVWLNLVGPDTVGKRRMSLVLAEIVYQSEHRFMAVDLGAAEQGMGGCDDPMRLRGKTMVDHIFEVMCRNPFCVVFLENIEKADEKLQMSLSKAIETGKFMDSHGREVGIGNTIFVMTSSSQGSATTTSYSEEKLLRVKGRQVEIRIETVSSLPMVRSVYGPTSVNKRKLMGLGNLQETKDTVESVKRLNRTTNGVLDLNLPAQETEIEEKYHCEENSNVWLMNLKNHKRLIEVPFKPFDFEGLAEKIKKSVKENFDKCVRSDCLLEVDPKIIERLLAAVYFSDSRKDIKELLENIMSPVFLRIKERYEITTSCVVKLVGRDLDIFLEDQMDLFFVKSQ

[2] = molecular target: T2, SUPPRESSOR OF MAX2-LIKE 6 fused to the GAL4 DNA binding domain (Arabidopsis thaliana) (UniProt Q9LML2)
T2 sequence: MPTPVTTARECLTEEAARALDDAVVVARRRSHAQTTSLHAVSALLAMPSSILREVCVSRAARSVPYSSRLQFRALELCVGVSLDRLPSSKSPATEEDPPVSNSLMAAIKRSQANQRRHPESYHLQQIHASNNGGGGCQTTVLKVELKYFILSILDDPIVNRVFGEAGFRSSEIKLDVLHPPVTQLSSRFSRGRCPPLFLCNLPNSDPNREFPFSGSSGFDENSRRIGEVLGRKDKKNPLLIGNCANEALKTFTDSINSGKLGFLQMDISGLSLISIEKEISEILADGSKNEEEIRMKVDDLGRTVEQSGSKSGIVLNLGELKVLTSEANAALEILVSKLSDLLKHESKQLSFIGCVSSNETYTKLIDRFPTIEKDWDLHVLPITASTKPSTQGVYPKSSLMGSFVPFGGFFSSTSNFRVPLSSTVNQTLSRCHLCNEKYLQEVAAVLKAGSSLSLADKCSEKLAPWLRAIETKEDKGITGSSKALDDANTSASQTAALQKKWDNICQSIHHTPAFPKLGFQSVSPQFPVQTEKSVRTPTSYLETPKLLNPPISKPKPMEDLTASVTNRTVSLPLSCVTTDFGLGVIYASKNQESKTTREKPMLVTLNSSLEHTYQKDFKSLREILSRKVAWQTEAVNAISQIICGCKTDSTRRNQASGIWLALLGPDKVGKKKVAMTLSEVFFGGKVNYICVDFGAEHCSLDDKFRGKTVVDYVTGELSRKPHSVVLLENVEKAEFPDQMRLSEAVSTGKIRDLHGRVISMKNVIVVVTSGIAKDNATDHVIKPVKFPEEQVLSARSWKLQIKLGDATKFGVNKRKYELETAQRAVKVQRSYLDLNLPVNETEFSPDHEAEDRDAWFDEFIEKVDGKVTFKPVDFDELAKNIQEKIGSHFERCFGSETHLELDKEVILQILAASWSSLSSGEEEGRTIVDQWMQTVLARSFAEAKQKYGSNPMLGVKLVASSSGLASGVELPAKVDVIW

[3] = molecular target: T3, SUPPRESSOR OF MAX2-LIKE 7 fused to the GAL4 DNA binding domain (Arabidopsis thaliana) (UniProt O80875)
T3 sequence: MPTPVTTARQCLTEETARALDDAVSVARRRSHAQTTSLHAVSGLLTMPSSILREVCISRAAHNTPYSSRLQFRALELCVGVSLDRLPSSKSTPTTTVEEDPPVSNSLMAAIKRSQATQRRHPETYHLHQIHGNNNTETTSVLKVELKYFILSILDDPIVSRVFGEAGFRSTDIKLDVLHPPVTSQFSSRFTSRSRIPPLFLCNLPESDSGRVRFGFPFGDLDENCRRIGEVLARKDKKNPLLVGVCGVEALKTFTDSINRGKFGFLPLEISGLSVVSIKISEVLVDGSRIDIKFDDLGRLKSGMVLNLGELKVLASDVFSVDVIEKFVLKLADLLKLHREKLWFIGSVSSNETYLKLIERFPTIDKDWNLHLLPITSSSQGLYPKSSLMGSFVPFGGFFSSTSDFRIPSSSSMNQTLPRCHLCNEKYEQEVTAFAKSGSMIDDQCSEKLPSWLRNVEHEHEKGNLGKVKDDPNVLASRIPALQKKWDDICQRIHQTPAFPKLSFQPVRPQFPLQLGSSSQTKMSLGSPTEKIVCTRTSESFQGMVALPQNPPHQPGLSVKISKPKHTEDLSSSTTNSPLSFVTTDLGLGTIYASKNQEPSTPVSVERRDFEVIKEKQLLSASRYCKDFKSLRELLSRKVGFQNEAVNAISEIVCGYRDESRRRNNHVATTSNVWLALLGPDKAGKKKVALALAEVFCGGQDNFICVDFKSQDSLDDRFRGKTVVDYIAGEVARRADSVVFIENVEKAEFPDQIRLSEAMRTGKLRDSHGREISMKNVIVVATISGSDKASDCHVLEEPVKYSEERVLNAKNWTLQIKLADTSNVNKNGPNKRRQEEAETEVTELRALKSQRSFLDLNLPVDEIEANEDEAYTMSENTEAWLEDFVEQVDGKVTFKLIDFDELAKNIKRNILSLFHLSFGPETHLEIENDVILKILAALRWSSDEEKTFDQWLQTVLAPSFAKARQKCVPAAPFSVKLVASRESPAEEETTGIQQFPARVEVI

Measured: binding

B1: DWA2 (yeast two-hybrid fusion) (protein, UniProt Q6NPN9 1-350)
chain: MQGGSSGIGYGLKYQARCISDVKADRDHTSFLTGTLSLKEENEVHLLRLSSGGSELLCEGLFSHPNEIWDLASSPFDQRIFSTVFSTGDSYGAAIWQIPEPYGQSNSSTLECVASLDAHVGKINCVLWCPSGNSDKLISMDEQNLVFWSLDSSKKSAEVLSKESAGMRHSLSGGAWNPHDVNSVAATSESSIQFWDLRTMKKNNSIERAHVRNVDYNLKREHILVSADDESGIHLWDLRKTKFPVQELPGHTHWTWAVRCNPEYEELILSVGTDSAVNLWFASASSEHKTSESPVEASRQRVNPLLNSYTDYEDSVYGLAWSSREPWIFASLSYDGRVVIESVKPFLPRR
no binding: all assays above

B2: ABSCISIC ACID … 5 (yeast two-hybrid fusion) (protein, UniProt Q9SJN0 1-442)
chain: MVTRETKLTSEREVESSMAQARHNGGGGGENHPFTSLGRQSSIYSLTLDEFQHALCENGKNFGSMNMDEFLVSIWNAEENNNNQQQAAAAAGSHSVPANHNGFNNNNNNGGEGGVGVFSGGSRGNEDANNKRGIANESSLPRQGSLTLPAPLCRKTVDEVWSEIHRGGGSGNGGDSNGRSSSSNGQNNAQNGGETAARQPTFGEMTLEDFLVKAGVVREHPTNPKPNPNPNQNQNPSSVIPAAAQQQLYGVFQGTGDPSFPGQAMGVGDPSGYAKRTGGGGYQQAPPVQAGVCYGGGVGFGAGGQQMGMVGPLSPVSSDGLGHGQVDNIGGQYGVDMGGLRGRKRVVDGPVEKVVERRQRRMIKNRESAARSRARKQAYTVELEAELNQLKEENAQLKHALAELERKRKQQYFESLKSRAQPKLPKSNGRLRTLMRNPSCPL
no binding: all assays above
